In publication PMC12136788:
The list shows a part of the results.

B1: chr8:54879716:54879717:-_ENSG00000187735_ENST00000521604|hu_mus|FALSE|FALSE (ssRNA)
RNA: GGGAGUUCUACAGUCCGACGAUCUCAUCAUGUAAGAAAAAUUUCAGCACAAAAGAUUCAGUCUAAAGGAGGUGCCUUUUUUUGCAACCUCCAUACACAAAGAGCAUAGCUUAAUGAUUUACACAGUUCUCAGGCUUAAUCCUUCAACAGAGGAUUGAGCAUCA
B2: chr2:5814250:5814251:-_ENSMUSG00000025816_ENSMUST00000102981|mus_hu|mus_mus_mus_hu_True|78_108 (ssRNA)
RNA: GGGAGUUCUACAGUCCGACGAUCUUCCUUUCAGGCUUCUGAAUUUCUGGUAGAACUGCACAGAAAGGUUUGAUAACUUCUAAAAAUUUGAUGCCCAUGGCUGCUGCUGGGGAGGCCCAGGGGGAAACCGCGGCCUCGGCGCUGCAACAGAGGAUUGAGCAUCA
B3: chr1:163112212:163112213:-_ENSG00000143248_ENST00000313961|hu_hu|hu_hu_hu_mus_False|1_48 (ssRNA)
RNA: GGGAGUUCUACAGUCCGACGAUCUUUUAUUAUCAGUAAGAGUGAGUUACAUACUAGGCAAAGUAUUGGAUACAAUAAUCAGGAAACAAACACAAUUGGUCCAGAAUUUAAAACUUUAUGAGCGAAGUGCUGGCACAGGAUUUACAACAGAGGAUUGAGCAUCA
B4: 102723950_102724070_875_CDS_ENSMUSG00000020929_ENSMUST00000107060|mouse|control|control (ssRNA)
RNA: GGGAGUUCUACAGUCCGACGAUCAAUGUGUCGCAGCUUGUAAUAAGCAUCUGUUGGAGGCAGCUUCAGCUCCAAGAUCAGCCGGUCGAUUUUGUUGAUACACACGGUGACUGCUAACCUUUCCUGCACUGCGUGCUUGAUCAGCAACAGAGGAUUGAGCAUCA
B5: chr15:73134924:73134925:-_ENSMUSG00000022607_ENSMUST00000110036|mus_mus|motif|central (ssRNA)
RNA: GGGAGUUCUACAGUCCGACGAUCGUCAAAUCUGUACACAGGAGAAAGAAUCUCAAAGAAUUUCAGGAUGCUUUCUUCUCGGUUAAGGUUGGCAAACUGCCUGAAUGUUUGCUGGAUCAGCUUUCUUAGUGUUUUGGCCUUGACCAACAGAGGAUUGAGCAUCA
B6: chr11:215046:215047:+_ENSG00000177963_ENST00000526104|hu_hu|motif|central (ssRNA)
RNA: GGGAGUUCUACAGUCCGACGAUCUUUAUUUCAAGAUGAUGUUUCUGUGGCUAUGUGUGGUAUGUGGUAUAAAUCUCAAUCGGUGGUCACACGAGGGGCAUUUUCCUUGUUGUAAGUGUAGUCUAAACCAGUAGGAAGGAGGUUCAACAGAGGAUUGAGCAUCA
B7: chr8:117868997:117868998:-_ENSG00000164754_ENST00000297338|hu_hu|FALSE|FALSE (ssRNA)
RNA: GGGAGUUCUACAGUCCGACGAUCCACCCCUGCCUCAGAGAGGGCAGGGGGAUCAUCAAAGAUACCGCCAUCAUUAUUACUAAUAAGUUUGUCAUCUAAUAUUCCACCAUCAUUUCCUUCUCCAAAAUUAUCAUCCUUAUAUUGCAACAGAGGAUUGAGCAUCA
B8: chr15:38777322:38777323:+_ENSG00000171262_ENST00000397609|hu_hu|motif|central (ssRNA)
RNA: GGGAGUUCUACAGUCCGACGAUCAGAAAAAAAUGAUUCACAACAACUGCCUACUAAAUACAACUGGAAGUGCCUUUCCCGGUUUUGUAAAAUCGAAUGAAAAACCCACAAAACACAUCCACAGCAAUACAGGUGAGGCAAGGGCAACAGAGGAUUGAGCAUCA
B9: chr10:97366135:97366136:-_ENSG00000059573_ENST00000371224|hu_hu|FALSE|FALSE (ssRNA)
RNA: GGGAGUUCUACAGUCCGACGAUCAUGACUACAUGUGAAAGAAAUAAAAUGUGAAAAGAUUUGUUAAGGAUGACUGGCUCUAGUACCAACUAAAUGCCAAGGGGGACUGUAAGUCACUGAGGUGACACAAAGCAGCCAUGGGUUCAACAGAGGAUUGAGCAUCA
B10: chr3:58389949:58389950:+_ENSMUSG00000075700_ENSMUST00000107924|mus_hu|motif|central (ssRNA)
RNA: GGGAGUUCUACAGUCCGACGAUCCAAGAAGAAAACCAUCAUACAUGCAUAAACCUUAUUUUCUUGGCCCCACUGCCAGAUGCGGGGAGCUUGCAUGCCAAAGAAAGCAAAAGGAUCCUUGCCAACAAUUAUUAAGCCUAUUAACAACAGAGGAUUGAGCAUCA
B11: chr14:100422286:100422287:-_ENSMUSG00000072294_ENSMUST00000097079|mus_mus|motif|central (ssRNA)
RNA: GGGAGUUCUACAGUCCGACGAUCAGGGGAGGUCCUGGCUUUGUUGAUUGACAAGUCCACUGGCUCAGUUUGUGUCUGAAAGUGAUCGGCAGGCAGUGAGUCCUCUGGGGGCUCCCCUUUCACAUUAUUUAGCAAGAGGGGGACCAACAGAGGAUUGAGCAUCA
B12: chr8:104447970:104447971:+_ENSG00000164934_ENST00000297579|hu_hu|hu_hu_hu_mus_False|18_68 (ssRNA)
RNA: GGGAGUUCUACAGUCCGACGAUCAUACACUUCCCUGCUUCGGCUCUUGUCCACAGGAAAGAUUCUAAUAGAUUUAUCAAAGCUGGCAGACACAAAUUCCUUCCCAGUGGGAGAGUAAUCCACAUCAAGUACUGCAGACACGUGCAACAGAGGAUUGAGCAUCA
B13: chr10:7839049:7839050:+_ENSG00000165629_ENST00000356708|hu_hu|FALSE|FALSE (ssRNA)
RNA: GGGAGUUCUACAGUCCGACGAUCCAGCUCUCUCUCAGCUCGGGCAUAUUUUGCUGCCGCUACCAUUUUCAUAGACUUGGUAAUUUUCUGGAUGUUUUUGAUGGACUUUAGUCUCCUGGUGAUAUCUUUCAAAGUUGCCAUAUUCAACAGAGGAUUGAGCAUCA
B14: chr14:102368134:102368135:+_ENSG00000078304_ENST00000445439|hu_hu|hu_hu_hu_mus_True|78_78 (ssRNA)
RNA: GGGAGUUCUACAGUCCGACGAUCAAGAGGCUCCAUGAUCUUCACAAACUCUGAUGGUUCAAUGACAUCUAAAAUUUCUUCUAAUUCAUUUAAGAACAUUACUUCUUUUGGACUGUGAGUCUUUGGCCAGUAUUUGAGAAGUGCCAACAGAGGAUUGAGCAUCA
B15: 51076992_51079696_1372_CDS_ENSG00000066084_ENST00000301180|human|control|control (ssRNA)
RNA: GGGAGUUCUACAGUCCGACGAUCUUUUAGACAAACUUCACUGGUAAGAGCUAAGGCAAUACCACAGCUUCCUAGCAAGAAGCCAAUCUGCUGACCUCCAGCAUCCUUUCUGGUAAGAGGUACCUCUAUAGGCACUGGAAUCACCAACAGAGGAUUGAGCAUCA
B16: chr2:49629323:49629324:+_ENSMUSG00000026764_ENSMUST00000028102|mus_mus|FALSE|FALSE (ssRNA)
RNA: GGGAGUUCUACAGUCCGACGAUCUCAAAUGCAGUCGGCAUUAUAAGCCCCAACCAUAACCACUAUCUUCAAUAACAUUCUAAUCAUCACCCCAACGGCUGGCAGGCAGAGGUUAUUUGUCUAAACCAUCUGGCUGCACUCCUACAACAGAGGAUUGAGCAUCA
B17: chr3:19992450:19992451:+_ENSG00000144566_ENST00000273047|hu_hu|motif|central (ssRNA)
RNA: GGGAGUUCUACAGUCCGACGAUCUUUCACAAAACGAAGCACUAGGCUUGAUUUGCCAACAGCGGACUCUCCCAGAAGUACGGGUUUGAACUGGCAUAUUUUAUUUCCCGUAUUUGGCCCGUUGGGUCUUGUUGCGCCUCGACUCAACAGAGGAUUGAGCAUCA
B18: chr5:145543945:145543946:-_ENSG00000133706_ENST00000545646|hu_hu|hu_hu_hu_mus_True|98_98 (ssRNA)
RNA: GGGAGUUCUACAGUCCGACGAUCCUGAACGGCCAGUGGCGGGAAAUAAUCAAGCCAGUGCUCUGCUUCAGAAAACUUCACUAUGUCGUCAUCAGAGAGCCCAAGGGAUUUCAUAAUGUCCCACUGGUACUUAGAAGAUCCUGCCAACAGAGGAUUGAGCAUCA
B19: chr3:9412954:9412955:+_ENSG00000134077_ENST00000452837|hu_mus|hu_hu_hu_mus_False|58_78 (ssRNA)
RNA: GGGAGUUCUACAGUCCGACGAUCGGUUGAUAUCUCUUCUUUGAUGGCUGGAUUUUCAUAAUAAUCUAAGAUAUGUGAAUCUAAAGCGCUGCUGGCAUGCUUUUUCUUACCAUCUUUCUCAUCUGCUUUGUCUCCUUGUCCACACAACAGAGGAUUGAGCAUCA
B20: chr2:232320318:232320319:-_ENSG00000115053_ENST00000322723|hu_hu|hu_hu_hu_mus_True|28_108 (ssRNA)
RNA: GGGAGUUCUACAGUCCGACGAUCACUGUUGAAGUCUACAAAACCAAACCCUUUGGAAGAACCAGUUUCCCGAUCAGUGACUAUUCUUGCACGAACAGAGCCCUCAAAUGACUCCUUUAAGGUCUCUUCAGUGGUAUCCUCAGACAACAGAGGAUUGAGCAUCA
B21: chr1:76254992:76254993:+_ENSG00000137955_ENST00000319942|hu_hu|motif|central (ssRNA)
RNA: GGGAGUUCUACAGUCCGACGAUCCAGCGUAAGAAUCUGGACAGCACUAAGAGUGUAUAAAAGAUGAGGAUCAUGUCCGAUACGGGCACUUAUUCCACCACAUUCAUGUUGGCAAGACUUAAUAAAUGCCAGAAUCUCUUCUCUCAACAGAGGAUUGAGCAUCA
B22: chr1:58468927:58468928:-_ENSMUSG00000026034_ENSMUST00000148330|mus_mus|mus_mus_mus_hu_False|1_8 (ssRNA)
RNA: GGGAGUUCUACAGUCCGACGAUCAAUUACUGAAAAAGAUGUUCAUUACCUUAGCUAUGUACUUAAUGAACCAAAUUACCCAAACAAAAUAAACAUGGCAAUAUAAAAAUGUUAAGAAUUUACAAAGAUUAAAAGCUAGACUGACAACAGAGGAUUGAGCAUCA

Biological target: T1, UNK ZnF1-3 (human, UniProt Q9C0B0 31-174)
T1 sequence: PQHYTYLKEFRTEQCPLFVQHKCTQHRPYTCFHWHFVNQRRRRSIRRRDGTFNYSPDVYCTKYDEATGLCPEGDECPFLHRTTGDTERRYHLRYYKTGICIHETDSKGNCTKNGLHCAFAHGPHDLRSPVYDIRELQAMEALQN
Experiment: nsRBNS (natural sequence RNA bind-n-seq); RBNS binding buffer (assumed for nsRBNS): 25 mM Tris pH 7.5, 150 mM KCl, 3 mM MgCl2, 0.01% Triton X-100, 500 ug/ml BSA, 20 U/ml SUPERase-In, 4 C; UNK is unkempt and MSI1 is Musashi-1; names of the RNAs are library labels; protein concentration not given here; high values mean tight binding

**Q.** For B1, which binding signal is on record?
**A.** 0.679 enrichment R

**Q.** B2 was tested. Which binding signal did it give?
**A.** 1.39 enrichment R

**Q.** How did the binding signal turn out when B3 was run?
**A.** 1.36 enrichment R

**Q.** Which binding signal does the source give for B4 here?
**A.** 0.679 enrichment R

**Q.** With B5 as the binder, how does the binding signal read?
**A.** 0.817 enrichment R

**Q.** Which binding signal does the source give for B6 here?
**A.** 1.11 enrichment R

**Q.** For B7, which binding signal is on record?
**A.** 1.25 enrichment R

**Q.** B8 was tested. Which binding signal did it give?
**A.** 1.94 enrichment R

**Q.** B9 was tested. Which binding signal did it give?
**A.** 2.95 enrichment R

**Q.** With B10 as the binder, how does the binding signal read?
**A.** 1.24 enrichment R

**Q.** With B11 as the binder, how does the binding signal read?
**A.** 0.92 enrichment R

**Q.** Which binding signal does the source give for B12 here?
**A.** 1.24 enrichment R

**Q.** How did the binding signal turn out when B13 was run?
**A.** 0.49 enrichment R

**Q.** With B14 as the binder, how does the binding signal read?
**A.** 0.741 enrichment R

**Q.** Which binding signal does the source give for B15 here?
**A.** 0.649 enrichment R

**Q.** With B16 as the binder, how does the binding signal read?
**A.** 1.13 enrichment R

**Q.** Which binding signal does the source give for B17 here?
**A.** 0.746 enrichment R

**Q.** How did the binding signal turn out when B18 was run?
**A.** 1.13 enrichment R

**Q.** For B19, which binding signal is on record?
**A.** 0.464 enrichment R

**Q.** Which binding signal does the source give for B20 here?
**A.** 0.429 enrichment R

**Q.** How did the binding signal turn out when B21 was run?
**A.** 1.17 enrichment R

**Q.** Which binding signal does the source give for B22 here?
**A.** 2.3 enrichment R
